# Reference: ChEMBL document CHEMBL5308541, “MAIP: An Open-Source Tool to Enrich High-Throughput Screening Output and Identify Novel, Druglike Molecules with Antimalarial Activity” (ACS Med Chem Lett, 2023)
# Hit rate of the full screen: of about 150,000 compounds, about 540 (0.36%) showed an effect of 50% or more. The list shows a part of the results.
# System: Plasmodium falciparum
# Experiment: Primary screen in NF54 nanoGlo assay, in single point, at 2uM, 72h; a lower Z score goes with more inhibition
# Assay type: functional, Erythrocyte
# Settings: timepoint 72 hour
Structure (SMILES),% Inhibition [%],Z score
Nc1ccc(N[C@H]2CCCN(CC3CC3)CC2)cn1,-7,1.13
O=C(NC[C@H]1C[C@@H]2CCN1C[C@@H]2CN1CCN(C(=O)c2ccc3c(c2)OCO3)CC1)c1ccc2c(c1)OCO2,3,-0.46
CC(C)OC[C@@H](O)Cn1c(-c2cccnc2)noc1=O,-1,0.24
CN1CCC(N(C)c2ccccc2CNC[C@@H](O)c2cccc(Cl)c2)CC1,22,-4.82
CS(=O)(=O)Cc1nc(CN2CCC[C@H](C(=O)c3ccc(F)cc3)C2)cs1,-14,2.75
Cc1ccc(NCC2CCN(C)CC2)nn1,-14,2.4
C[C@@H](Cc1ccccc1)NCCc1ccc(N)cc1,-13,1.94
c1ccc(-c2ccc(CNC[C@@H]3CCCN4CCCC[C@H]34)s2)nc1,-1,0.13
O=C(NC1COCC1N1CCCCC1)c1ccc(-c2cccc(O)n2)cc1 (stereo not drawn),-1,0.17
C[C@@H](CN1CCN(C)CC1)NC(=O)N1CCC(Nc2ccccc2F)CC1,-2,0.37
Cc1[nH]c2ccccc2c1CC(=O)NC1COCC1N1CCCCC1 (stereo not drawn),5,-0.74
O=C1NC2(CCCC2)C(=O)N1CCn1c(-c2cccnc2)noc1=O,3,-0.51
CC(C)(C)c1ccc(CNC[C@H](O)c2ccc(F)cc2F)cc1,94,-16.43
O=C(N[C@@H]1CCC[C@@H]1N1CCC(O)C1)c1ccc2[nH]ccc2c1 (stereo partly drawn),-3,0.42
